# The GPR68 mutational scans of Howard et al. (2025)
# B1: GPR68, Q15743 (parent)
# chain: MGNITADNSSMSCTIDHTIHQTLAPVVYVTVLVVGFPANCLSLYFGYLQIKARNELGVYLCNLTVADLFYICSLPFWLQYVLQHDNWSHGDLSCQVCGILLYENIYISVGFLCCISVDRYLAVAHPFRFHQFRTLKAAVGVSVVIWAKELLTSIYFLMHEEVIEDENQHRVCFEHYPIQAWQRAINYYRFLVGFLFPICLLLASYQGILRAVRRSHGTQKSRKDQIQRLVLSTVVIFLACFLPYHVLLLVRSVWEASCDFAKGVFNAYHFSLLLTSFNCVADPVLYCFVSETTHRDLARLRGACLAFLTCSRTGRAREAYPLGAPEASGKSGAQGEEPELLTKLHPAFQTPNSPGSGGFPTGRLA
# Variants of: B1
# Assay: cAMP reporter score (Enrich2 score, wild type = 0); higher = more signal; HEK293T, FACS bins
# Conditions: pH 6.5; modulator: ogerin
row,Variant,cAMP reporter score
1,L297N,-1.68

# Variants of: B1
# Assay: surface expression score (Enrich2 score, wild type = 0); higher = more signal; HEK293T, FACS bins
# Conditions: not given
row,Variant,surface expression score
1,L297N,0.305
2,G110T,-1.14
3,C114_I115insG,-0.285
4,T152Q,0.392
5,I154Y,-0.402
6,H175C,-0.282
7,D259F,-0.405
8,E326S,1.19

# The least precise scores are not listed. Not listed are two conditions whose scores span a narrow range. In variant names, del marks residues removed and ins residues inserted between the two positions. For part of these data: The concentration of ogerin is not given here.
